Laboratory results: ChEMBL document CHEMBL4888484, “Replenishing the malaria drug discovery pipeline: Screening and hit evaluation of the MMV Hit Generation Library 1 (HGL1) against asexual blood stage Plasmodium falciparum ,using a nano luciferase reporter read-out” (2022)
Screen size: about 150,000 compounds; about 540 (0.36%) showed an effect of 50% or more. The list shows a part of the results.

What follows are compounds tested on Plasmodium falciparum (assay: Primary screen in NF54 nanoGlo assay, in single point, at 2uM, 72h; a lower Z score goes with more inhibition). Conditions: timepoint 72 hour.
Assay type: functional, Erythrocyte

| Compound | % Inhibition | Z score |
| --- | --- | --- |
| CN(CC(=O)Nc1cccc(F)c1)C(=O)c1cc(S(=O)(=O)N(C)C)ccc1N1CCCCC1 | -4% | 0.39 |
| Cc1noc(C)c1CN(C)CC=Cc1ccncc1 | -14% | 1.72 |
| Nc1ccncc1-c1ccccc1OCc1cccc(F)c1 | -5% | 0.63 |
| O=C(NCCOc1ccccc1)N(Cc1ccsc1)CC(F)(F)F | -12% | 1.31 |
| CCN(CC)c1ccc(C(=O)OCC(=O)N2CCCC2)cc1 | -7% | 0.99 |
| Cc1nc(C)c(COc2ccncc2)o1 | -11% | 1.17 |
| c1ncc(CNc2ccc3scnc3c2)s1 | -11% | 1.14 |
| COC(c1ccccc1Cl)C(C)NC(=O)Cc1ccc(C)nc1 (stereo not given) | -12% | 1.47 |
| CC(=O)c1cccc(-c2ccc3c(cnn3CC(=O)Nc3ccnn3C)c2)c1 | -12% | 1.94 |
| COc1cccc(-c2cn3c(-c4ccccc4)c(-c4ccccc4)nc3n2CCc2ccccc2)c1 | 2% | -0.19 |
| Cc1noc(C)c1C(=O)OCC1CCC1 | -15% | 2.34 |
| Cc1cc(C2CCC2)nc(N2CCCNCC2)n1 | 1% | -0.25 |
| O=C(C1CCS(=O)(=O)C1)N(CC(O)c1ccc(F)cc1)C1CC1 (stereo not given) | -1% | 0.08 |
| Nc1cc(Br)ccc1OC[C@H]1CCOC1 | -15% | 1.75 |
| O=C(Cc1ccccc1)N(c1ccccc1)c1ccc(N(C(=O)Cc2ccccc2)c2ccccc2)cc1 | -4% | 0.62 |
| CN1CCCN(C(=O)c2scnc2C(C)(C)C)c2cc(F)ccc21 | -7% | 1.01 |
| O=C1c2ccccc2N[C@H](c2cccs2)N1Cc1ccc2c(c1)OCO2 | -5% | 0.62 |
| CN1CCOC(C(NC(=O)c2n[nH]c3c2CCC3)c2ccc(Cl)cc2)C1 (stereo not given) | 1% | -0.14 |
| c1ccc2c(c1)nc1n2CCN(C2CCCCC2)C1 | -1% | 0.12 |
| Cc1cc(COc2ccc(C(=O)N3CCNC[C@@H]3C)cc2Br)on1 | 11% | -1.36 |
| O=C(Nc1ccc(F)cc1)c1cc(CN2CCCC2)on1 | -24% | 2.42 |
| O=C(c1cc(-n2cccn2)ccc1Cl)N1C[C@H](O)[C@@H](F)C1 | 1% | -0.12 |
| O=C(C1CCCO1)N1CCC(OCCCc2ccccc2)C1 (stereo not given) | -3% | 0.3 |
| Cc1ccc2c(c1)CC[C@@H](C(=O)NCc1cc(C)nc(C)n1)O2 | -15% | 2.08 |
| CC1CN(S(=O)(=O)c2cccnc2)CC(c2ccc(F)cc2)O1 (stereo not given) | -4% | 0.55 |
